Source: PubChem BioAssay AID1347417 (National Center for Advancing Translational Sciences (NCATS), 2020)
About 5,300 (4.4%) of roughly 120,000 compounds were called active. The shares of active, inactive and inconclusive entries below differ from those in the screen. Calls come from the whole dose curve; as a rule, active = well fitted inhibition curve with a large enough effect; inconclusive = small, poorly fitted or top-dose-only effect; inactive = no such curve, though single readings can be large or run the other way. Where the call is inconclusive, the potency comes from a doubtful curve fit.

Test: qHTS Primary assay for Inhibitors of Plasmodium falciparum Dd2 growth in vitro; note: nearly all actives have a fitted effect of over 65% in size;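 for activity, negative = inhibition: plate controls were DMSO vehicle for no effect and reference drug for full effect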
Conditions: P. falciparum Dd2 growth, SYBR Green, 72 h; activity, negative = inhibition: at 28.9 µM (top of the series) unless noted; series mostly up to 28.9 µM
Outline: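 Readout: SYBR Green fluorescence, 485 nm excitation, 535 nm emission, after ~16 h lysis at 37C. Before that, Dd2-infected red cells (2.5% hematocrit) grew 72 h with compound, 29 uM top final concentration.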
Potency is the fitted concentration of half-maximal effect; tags give direction and shape of the fitted curve.

Structure (SMILES) | Potency | activity, negative = inhibition
O=C(Nc1cccc(F)c1)N1CCC(Oc2ncccc2C(=O)N2CCCCC2)C1 (centres undefined) | inconclusive: 0.891 µM [inhibitor, partial curve] | 
Cc1ccc(/C=C/c2onc(C)c2S(=O)(=O)N2CCC(C(=O)N3CC(C)Oc4ccccc43)CC2)cc1 (centres undefined) | inconclusive: 10 µM [inhibitor, single point] | 
Cc1nn(-c2ccc(F)cc2)c(C)c1[C@@H]1C=C[C@@H](NCc2ccc(C(C)C)cc2)C1 | inconclusive: 2.24 µM [inhibitor, full curve, poor fit] | 
CCCn1c(C)c(CC(=O)N(C)Cc2cccnc2)c2c1CC(C)(C)CC2=O | inconclusive: 17.8 µM [inhibitor, single point] | 
COc1ccc(NC(=O)Cn2c(N(C)Cc3ccccc3)nc(C)cc2=O)cc1 | inactive | 
Cn1ccc2c(C(=O)NCc3cccnc3)nc(-c3cccc(O)c3)cc21 | inconclusive: 31.6 µM [inhibitor, single point] | 
Cc1c(Cl)cccc1-n1ncc(C(=O)N2CCc3ccccc3C2)c1C1CCN(C(=O)OC(C)(C)C)CC1 | inconclusive: 11.2 µM [inhibitor, partial curve, poor fit] | 
CC(=O)c1ccc(NC(=O)NC[C@H]2C[C@@H]3CCN2C[C@@H]3c2cc(-c3ccco3)nc(C)n2)cc1 | inconclusive: 2.82 µM [inhibitor, partial curve] | 
COc1cccc(C(=O)N2CCC(C(NC(=O)c3ccccc3)C(=O)NCc3ccco3)CC2)c1 (centres undefined) | active: 8.91 µM | 
COc1ccc(N2CCN(C(CNC(=O)CC(C)C)c3ccc4c(c3)OCO4)CC2)cc1 (centres undefined) | active: 5.62 µM | 
COc1ccccc1-c1nnc([C@H]2CCN(CC(C)C)C2)o1 | inconclusive: 11.2 µM [inhibitor, single point] | 
Cc1ccc(-c2nnc3ccc(NCc4cccc(F)c4)nn23)nc1 | inconclusive: 12.6 µM [inhibitor, single point] | 
COc1ccc(-c2nn(-c3ccccc3)cc2CN2CCCC(CO)C2)c(F)c1 (centres undefined) | active: 8.91 µM | 
CS(=O)(=O)N1CCNC[C@@H]1C(=O)N[C@@H](CC1CCCCC1)C(N)=O | inactive | 
O=C(Cc1ccccc1)N1CCCC2(CNc3ccccc3[S+](=O)([O-])N2)C1 (centres undefined) | inactive | 
CCc1c(C)sc2c1CCN(C(=O)Nc1ccccc1C(F)(F)F)C2c1ccccc1 (centres undefined) | inconclusive: 14.1 µM [inhibitor, single point] | 
Cc1ccccc1NC(=O)c1c(NC(=O)C(C)Oc2cccc(Cl)c2)sc2c1CCCC2 (centres undefined) | inconclusive: 10 µM [inhibitor, single point] | 
Cc1ccc(C(Nc2ccccn2)c2ccc3cccnc3c2O)cc1 (centres undefined) | inconclusive: 10 µM [inhibitor, single point] | 
Cc1ccc(-c2noc([C@@H]3Cc4nc[nH]c4CN3C(=O)Nc3ccc(Cl)cc3)n2)cc1 | inconclusive: 8.91 µM [inhibitor, partial curve, poor fit] | 
O=C(c1ccc(Cl)cc1)N1CCC2(CC1)CC(=O)N(c1ccccc1)c1ccccc1O2 |  | inconclusive: -63.6% [inhibitor]
CCOc1ccc(C(=O)NC2CCN(c3cnn(CC4CC4)c(=O)c3)CC2)cc1 | inconclusive: 3.55 µM [inhibitor, single point] | 
CN(Cc1ccccc1CN1CCCC1)C(=O)C1CC2(CCNCC2)CN1C (centres undefined) | inactive | 

Structure (SMILES) | Potency | activity, negative = inhibition
CC(=O)N(C1CC1)C1CCOC2(CCN(C(=O)c3n[nH]c4ccccc34)CC2)C1 (centres undefined) | inconclusive: 0.794 µM [inhibitor, full curve] | 
COc1cc(Cl)c(NS(=O)(=O)c2ccc3c(c2)CC(C)N3C(=O)C2CCC2)c(OC)c1 (centres undefined) | inconclusive: 11.2 µM [inhibitor, single point] | 
O=C1C[C@@H]2CCN(Cc3ccccc3)C[C@@H]2CCN1C1CCCCC1 | inconclusive: 2.82 µM [inhibitor, single point] | 
Cc1ccc(-n2c(=O)c3c(cc(C)n3C)n(CC(=O)Nc3ccccc3F)c2=O)cc1 | inconclusive: 7.94 µM [inhibitor, partial curve, poor fit] | 
CC(C)(C)CNCC1(O)CCCN(Cc2cccc(F)c2F)C1=O (centres undefined) | active: 4.47 µM | 
Cc1noc2c(NCCN(C)C)cc(-c3ccc(Cl)cc3)nc12 | inconclusive: 31.6 µM [inhibitor, single point] | 
CCCCN(C)CCCNC(=O)c1ccc2nc(N3CCCCC3)sc2c1 | active: 8.91 µM | 
O=C(NCc1ccc(N2CCOCC2)cc1)c1cc2c(s1)CN(C1CC1)C2 | inconclusive: 12.6 µM [inhibitor, single point] | 
Cc1cccc(N2CCN(C(=O)c3cn(C4CCCCC4)c(=O)c4c3c3ccccc3n4C)CC2)c1C | inconclusive: 17.8 µM [inhibitor, single point] | 
Cc1cc2oc(=O)c(CC(=O)NCCc3ccccc3)c(C)c2c2occ(C(C)(C)C)c12 | inactive | 
COc1ccc(-c2cn3c(n2)sc2cc(C(=O)NC4CCCc5ccccc54)ccc23)cc1 (centres undefined) | inconclusive: 10 µM [inhibitor, single point] | 
CCN1CCC(N(Cc2ccc3c(c2)OCO3)C(=O)Nc2cc(Cl)ccc2C(=O)OC)CC1 | active: 3.55 µM | 
CC(C)c1noc(CC2CCN(C(=O)c3cccc(N(C)C)c3)CC2)n1 | inactive | 
CCn1nc(CC(C)C)cc1C(=O)NCc1cc(-c2cccc(F)c2)no1 | inactive | 
Cc1cccc(NC(=O)C2CCCN(S(=O)(=O)c3cccc4nonc34)C2)c1C (centres undefined) | inconclusive: 20 µM [inhibitor, partial curve, poor fit] | 
CCCCc1nc(C)cc(NCCn2ccc3[nH]c(=O)c(C#N)cc3c2=O)n1 | inconclusive: 15.8 µM [inhibitor, single point] | 
Cc1noc2c(-c3ccc(N4CCOCC4)cc3)cc(-c3cccnc3)nc12 | inconclusive: 22.4 µM [inhibitor, single point] | 
O=C(C1CC1)N1CCCCCCn2c(nnc2-c2ccc(F)cc2)CC1 | inactive | 
CCc1ccc(-n2c(SC(CC)C(=O)N(CC)CC)nc3n[nH]c(C)c3c2=N)cc1 (centres undefined) | inconclusive: 8.91 µM [inhibitor, partial curve] | 
CN1CCCCC12Cc1ccccc1CN([S+](=O)([O-])c1ccccc1)C2 (centres undefined) | inconclusive: 3.98 µM [inhibitor, full curve, poor fit] | 
CCOCCCNC(=O)C1CCCN(Cc2nc(-c3ccc(CC)cc3)oc2C)C1 (centres undefined) | inconclusive: 17.8 µM [inhibitor, single point] | 
Clc1ccc(-c2nnc([C@H]3CCN(C4CCCCC4)C3)o2)cc1 | inactive | 

Structure (SMILES) | Potency | activity, negative = inhibition
Cc1ccc(Cn2c(CNS(=O)(=O)c3c(C)cc(C)cc3C)nc3cccnc32)cc1 | inconclusive: 11.2 µM [inhibitor, single point] | 
O=C(NC1CCN(c2cc(-c3cccs3)[nH]n2)C1)c1ccccc1Cl (centres undefined) | inactive | 
CCN(Cc1ccccc1)Cc1c(O)ccc2c(=O)c(-c3ccccc3OC)c(C(F)(F)F)oc12 | inconclusive: 10 µM [inhibitor, partial curve, poor fit] | 
O=C(c1cc(-c2ccccc2F)n[nH]1)N1CCC2(CCCN(Cc3ccccc3F)C2)C1 (centres undefined) | active: 8.91 µM | 
Cc1cccc(OCC(=O)N2CCCC(n3cc(-c4nc(C5CC5)no4)nn3)C2)c1 (centres undefined) | inconclusive: 1.26 µM [inhibitor, partial curve, poor fit] | 
COc1ccc(/C=C/c2ccc3c(c2)C(=O)N2CC[C@H](N)[C@H]2C(=O)N3)cc1 | inconclusive: 14.1 µM [inhibitor, single point] | 
O=C1CCN(Cc2cccc(F)c2)CCCC(CO)CCN1 (centres undefined) | inconclusive: 8.91 µM [inhibitor, partial curve] | 
CCCN(CC1CCOC1)S(=O)(=O)c1cn(C)cn1 (centres undefined) |  | inactive: 35.2% [at 5.79 µM]
CC(C(=O)NC1CC1)[C@@H]1CC[C@@]2(C)CC[C@H](NC(=O)CC(C)(C)C)[C@@H](C)[C@@H]2[C@H]1O (some centres undefined) | inconclusive: 3.98 µM [inhibitor, single point] | 
COc1ccccc1N1CCN(C(=O)CCS(=O)(=O)c2cc(Br)cc3c2N(C(=O)C2CC2)CC3)CC1 | active: 10 µM | 
CCOC(=O)c1c(C)oc2nc(C)nc(N3CCN(c4ccccc4)CC3)c12 | inconclusive: 8.91 µM [inhibitor, single point] | 
COc1ccc2oc(=O)c(C(=O)NCCc3c(C)[nH]c4ccc(Br)cc34)cc2c1 | inconclusive: 10 µM [inhibitor, single point] | 
O=C(CSc1nnc(CNC(=O)c2ccccc2)n1-c1cccc(Cl)c1)Nc1ccccc1F | inconclusive: 17.8 µM [inhibitor, single point] | 
O=C(Nc1ccc(Cl)cc1Cl)c1c[nH]c2cccnc12 |  | inconclusive: -93.7% [inhibitor]
Cc1cc(C)c(CNC(=O)c2nc(-c3cccc(O)c3)cc3[nH]ccc23)c(=O)[nH]1 | inactive | 
O=C(NC[C@H]1C[C@@H]2CCN1C[C@@H]2CN1CCC(Cc2ccccc2)CC1)c1ccc(C(F)(F)F)cc1 | inconclusive: 3.98 µM [inhibitor, single point] | 
CC[C@H]1CN(C(=O)NC2CCCCC2)CC[C@H]1CC(=O)NCc1ccco1 | inconclusive: 10 µM [inhibitor, partial curve] | 
COc1cccc(C2C(C(=O)Nc3ccccc3OC)=C(C)Nc3nc4ccccc4n32)c1 (centres undefined) | active: 7.08 µM | 
CC(C)N1C[C@H](O)C[C@H]1c1nnc2n1CCN(C(=O)c1ccsc1)C2 | inactive | 
O=C(NCc1ccc(Cl)cc1)[C@@H]1Cc2nc[nH]c2CN1Cc1cc2ccccc2o1 | inconclusive: 11.2 µM [inhibitor, single point] | 
